Results taken from article PMC9911437.
Results are given in words; binding and its absence hold for the method and conditions named. For part of these data: Binding seen in cells or lysates may run through a third protein. Some results given as binding are weak or reduced against the parent protein; the word gives no strength.

The chains behind the UniProt entries cited, without tags or fusion partners. Where a name states a change or a piece, a line headed by the entry shows the natural chain unless it says otherwise. Residues count along the entry.
UniProt Q79FL8: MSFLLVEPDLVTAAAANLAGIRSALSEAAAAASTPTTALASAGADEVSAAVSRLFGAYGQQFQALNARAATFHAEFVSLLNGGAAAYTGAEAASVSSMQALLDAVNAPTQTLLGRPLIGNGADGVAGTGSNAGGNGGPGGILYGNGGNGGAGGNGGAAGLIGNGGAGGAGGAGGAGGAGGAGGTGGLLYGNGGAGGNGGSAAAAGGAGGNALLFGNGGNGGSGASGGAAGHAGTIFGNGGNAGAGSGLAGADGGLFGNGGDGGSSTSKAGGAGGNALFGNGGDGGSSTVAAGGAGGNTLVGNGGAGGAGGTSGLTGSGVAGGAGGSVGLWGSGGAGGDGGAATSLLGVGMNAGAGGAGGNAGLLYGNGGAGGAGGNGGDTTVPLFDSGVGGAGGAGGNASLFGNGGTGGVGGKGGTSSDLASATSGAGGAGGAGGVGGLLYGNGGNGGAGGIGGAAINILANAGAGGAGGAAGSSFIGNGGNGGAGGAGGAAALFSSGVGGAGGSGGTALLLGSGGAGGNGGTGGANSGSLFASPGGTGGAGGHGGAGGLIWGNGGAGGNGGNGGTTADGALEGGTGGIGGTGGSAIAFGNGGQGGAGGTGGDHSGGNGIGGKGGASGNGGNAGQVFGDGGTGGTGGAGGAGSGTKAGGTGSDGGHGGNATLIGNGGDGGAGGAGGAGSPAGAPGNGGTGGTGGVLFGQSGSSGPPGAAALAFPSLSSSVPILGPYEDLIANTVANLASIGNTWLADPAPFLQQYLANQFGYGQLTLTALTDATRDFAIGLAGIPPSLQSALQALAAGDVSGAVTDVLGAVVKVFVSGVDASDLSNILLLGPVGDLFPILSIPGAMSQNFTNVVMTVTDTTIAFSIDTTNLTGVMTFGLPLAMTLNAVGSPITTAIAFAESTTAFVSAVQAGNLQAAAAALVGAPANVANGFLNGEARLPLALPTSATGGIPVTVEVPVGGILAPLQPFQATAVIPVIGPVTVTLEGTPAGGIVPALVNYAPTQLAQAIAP
GST-PE: residues 1-93 of Q79FL8
UniProt O35129: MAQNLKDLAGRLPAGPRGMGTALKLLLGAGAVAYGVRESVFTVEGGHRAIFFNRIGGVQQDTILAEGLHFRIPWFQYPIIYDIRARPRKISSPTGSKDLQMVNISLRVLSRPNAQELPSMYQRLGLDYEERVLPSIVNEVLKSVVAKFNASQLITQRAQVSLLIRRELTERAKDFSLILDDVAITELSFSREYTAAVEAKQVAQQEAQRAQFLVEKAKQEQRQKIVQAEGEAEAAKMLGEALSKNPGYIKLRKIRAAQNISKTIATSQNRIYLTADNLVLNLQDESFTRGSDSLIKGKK

Assays:
[1] = target: GST-PE_PGRS30 fusion protein (Mycobacterium tuberculosis) (UniProt Q79FL8); test: pull-down; both purified
[2] = target: GST-PE (Mycobacterium tuberculosis) (UniProt Q79FL8); test: pull-down; GST-PE, GST-PGRS or GST-CT coupled to beads, mixed with recombinant His-PHB2 in 0.1% HNTG buffer, 4°C, 1 h; immunoblot with anti-GST and anti-PHB2; both purified
[3] = target: prohibitin 2 (PHB2), endogenous in RAW264.7 cells (mouse (endogenous in RAW264.7)) (UniProt O35129); test: co-IP
[4] = target: GST-PE_PGRS30 fusion protein (Mycobacterium tuberculosis) (UniProt Q79FL8); test: pull-down; GST-PE_PGRS30- or GST-coupled beads mixed with RAW264.7 whole cell lysate; immunoblot with anti-GST and anti-PHB2; only the target purified
[5] = target: GST-PE_PGRS30 fusion protein (Mycobacterium tuberculosis) (UniProt Q79FL8); test: pull-down; in vitro binding of PHB1 and PE_PGRS30; details only in Supplementary Figure S2

His-PHB2 (1–50) (from UniProt O35129 1-50) (domain or fragment)
binding [1]: binds

His-PHB2 (51–299) (from UniProt O35129 51-299) (domain or fragment)
binding [1]: no binding

His-PHB2 (from UniProt O35129 1-299)
binding [2]: no binding

PE_PGRS30-Myc (from UniProt Q79FL8 1-1011)
binding [3]: binds

prohibitin 2 (PHB2), endogenous in RAW264.7 cells (from UniProt O35129 1-299)
binding [4]: binds

B1: PHB1 (protein, UniProt P67778 1-272)
chain: MAAKVFESIGKFGLALAVAGGVVNSALYNVDAGHRAVIFDRFRGVQDIVVGEGTHFLIPWVQKPIIFDCRSRPRNVPVITGSKDLQNVNITLRILFRPVASQLPRIYTSIGEDYDERVLPSITTEILKSVVARFDAGELITQRELVSRQVSDDLTERAATFGLILDDVSLTHLTFGKEFTEAVEAKQVAQQEAERARFVVEKAEQQKKAAIISAEGDSKAAELIANSLATAGDGLIELRKLEAAEDIAYQLSRSRNITYLPAGQSVLLQLPQ
binding [5]: binds
